The campaign covered roughly 310,000 compounds. About 14,000 (4.5%) showed an effect of 50% or more. The effect is printed as a negative number. The list shows a part of the results.
These molecules were tested against human ether-à-go-go-related gene (hERG) potassium channel (human, UniProt Q12809) (assay: primary screen, population patch clamp on CHO cells stably expressing hERG).
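Also: peak tail current of the secondary pulse compared with the same well before compound.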

Chain of human ether-à-go-go-related gene (hERG) potassium channel (Q12809 whole entry, looked up): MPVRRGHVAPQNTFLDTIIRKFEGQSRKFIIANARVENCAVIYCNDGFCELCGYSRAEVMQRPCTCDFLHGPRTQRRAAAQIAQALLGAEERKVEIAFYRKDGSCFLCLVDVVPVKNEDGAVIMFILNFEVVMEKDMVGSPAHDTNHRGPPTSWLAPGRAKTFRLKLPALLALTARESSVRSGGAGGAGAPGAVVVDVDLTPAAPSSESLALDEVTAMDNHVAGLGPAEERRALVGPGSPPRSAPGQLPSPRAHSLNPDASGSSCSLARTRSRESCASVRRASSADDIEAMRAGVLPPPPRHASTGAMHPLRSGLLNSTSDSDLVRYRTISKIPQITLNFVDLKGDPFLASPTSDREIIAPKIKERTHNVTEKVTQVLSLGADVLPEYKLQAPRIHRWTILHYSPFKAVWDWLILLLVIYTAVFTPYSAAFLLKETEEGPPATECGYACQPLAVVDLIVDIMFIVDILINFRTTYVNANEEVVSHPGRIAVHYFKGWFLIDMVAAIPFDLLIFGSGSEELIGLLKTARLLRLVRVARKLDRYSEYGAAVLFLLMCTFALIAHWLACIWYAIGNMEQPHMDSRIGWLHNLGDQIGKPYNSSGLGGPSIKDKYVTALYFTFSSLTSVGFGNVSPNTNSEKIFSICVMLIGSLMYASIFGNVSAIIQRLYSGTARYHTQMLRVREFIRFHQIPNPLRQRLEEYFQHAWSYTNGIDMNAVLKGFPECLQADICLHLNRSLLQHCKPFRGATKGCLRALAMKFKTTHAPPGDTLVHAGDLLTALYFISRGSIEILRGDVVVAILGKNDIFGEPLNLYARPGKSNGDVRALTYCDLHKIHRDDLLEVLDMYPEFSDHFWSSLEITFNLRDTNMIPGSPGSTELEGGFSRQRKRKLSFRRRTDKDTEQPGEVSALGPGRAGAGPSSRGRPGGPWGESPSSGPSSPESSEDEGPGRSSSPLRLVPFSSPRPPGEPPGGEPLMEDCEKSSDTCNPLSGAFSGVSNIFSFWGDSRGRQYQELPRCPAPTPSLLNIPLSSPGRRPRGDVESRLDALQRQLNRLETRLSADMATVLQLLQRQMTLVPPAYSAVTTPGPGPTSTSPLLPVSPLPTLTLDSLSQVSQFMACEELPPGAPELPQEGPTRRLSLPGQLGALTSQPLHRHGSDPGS

| Structure (SMILES) | hERG current change (%, negative = inhibition) at 10uM |
| --- | --- |
| Cc1cccc(OCC(=O)NC(Cc2ccccc2)C(=O)O)c1 (centres unmarked) | 11.3% |
| O=C(CCCCn1c(=O)c2ccccc2n(Cc2ccc(Cl)cc2)c1=O)NCc1ccco1 | -11.5% |
| COc1ccccc1C1=NOC(COC(=O)c2ccc(Br)cc2)C1 (centres unmarked) | 9.12% |
| CCC(=O)N1CCc2cc(S(=O)(=O)CCC(=O)N3CCN(c4ccc(Cl)cc4)CC3)ccc21 | -8.86% |
| CC(=O)Nc1ccc(NC(=O)CSc2nnc(-c3ccco3)n2Cc2ccco2)cc1 | -1.79% |
| CN(C)c1ccc(/C=N/NC(=O)c2sccc2-n2cccc2)cc1 | 12.2% |
| CC1CCCN(C(=S)NCc2ccccc2)C1 (centres unmarked) | 8.32% |
| Cc1cccc(SCC(=O)Nc2ccccc2[N+](=O)[O-])c1 | 3.67% |
| CCC1CCCCN1CCCNC(=O)C1CC(=O)N(CCc2ccccc2)C1 (centres unmarked) | 24% |
| O=C(Nc1cc(S(=O)(=O)N2CCOCC2)ccc1Cl)C(=O)c1c(-c2ccccc2)cc2ccccn12 | -2.22% |
| Cc1cc(NC(=O)C(C)SCC(=O)OCC(=O)N(Cc2ccccc2)C(C)(C)C)no1 (centres unmarked) | -35.4% |
| Nc1cccc(-c2nc3ccc(C(=O)c4ccccc4)cc3[nH]2)c1 | -1.68% |
| O=C1/C(=N\O)Cc2ccccc21 | 1.21% |
| O=C(Oc1cccc(C(=S)N2CCOCC2)c1)c1cc([N+](=O)[O-])cc([N+](=O)[O-])c1 | -8.63% |
| C=CCNC(=O)C(=O)N/N=C/c1cccc(Br)c1 | 5.66% |
| Cc1cc(C(=O)COC(=O)C2=NN(c3ccccc3)C(=O)CC2)c(C)n1CC(F)(F)F | 0.186% |
| CC1CCN(c2nc3ccccn3c(=O)c2C=O)CC1 | 10.9% |
| O=C(NCc1ccccc1)C(c1ccco1)N(C(=O)c1csnn1)C1CC1 (centres unmarked) | 2.1% |
| O=C(COc1ccc(Cl)cc1Cl)N/N=C/c1cccnc1 | -11.9% |
| NC(=O)c1nsc(C(=O)N(Cc2cccnc2)C(C(=O)NC2CCCC2)c2ccc(F)cc2)c1N (centres unmarked) | 3.63% |
| O=C(CSc1ncccc1C(=O)O)Nc1ccc2c(c1)OCCO2 | 0.463% |
| CS(=O)(=O)N(CC(N)=O)c1ccc(F)c(Cl)c1 | 5.98% |

| Structure (SMILES) | hERG current change (%, negative = inhibition) at 10uM |
| --- | --- |
| Cc1ccc(C(=O)N2CCC(C(=O)c3ccc(Cl)cc3)CC2)cc1 | -68.4% |
| CC1(C)CC(=O)C(N=Nc2ccc(S(=O)(=O)N3CCOCC3)cc2)=C(O)C1 | 25.4% |
| CC1(C)CC2(CCO1)C(Nc1ccccc1)=NC(=S)N2c1ccccc1 (centres unmarked) | -6.5% |
| O=c1cc(N2CCCCC2)c(-c2ccccc2)nn1Cc1ccccc1Cl | -3.92% |
| Cc1cccc(NS(=O)(=O)c2nnc(NC(=O)CC(C)C)s2)c1 | 15.5% |
| COc1cccc(OCCSc2nc(C)c(Cc3ccccc3)c(=O)[nH]2)c1 | 15.5% |
| COCC(=O)N(C)c1nnc(-c2cnc(C)cn2)s1 | 6.68% |
| Cc1cc(C)c(C)c(S(=O)(=O)N2CCN(C)CC2)c1C | 10.9% |
| CCCCNC(=S)N(CCN(CC)CC)Cc1cc2cc3c(cc2[nH]c1=O)OCO3 | -33.3% |
| COc1ccc(N(CC(=O)N/N=C/c2cc(OC)ccc2OC)S(=O)(=O)c2ccccc2)cc1 | 5.48% |
| CCC(=O)C(C#N)(c1ccc(OC)c(OC)c1)C(C)C (centres unmarked) | -7.65% |
| O=c1[nH]c2ccccc2o1 | 20.3% |
| CCCn1nc(NC(=O)c2ccco2)c2cc3ccccc3nc21 | -31.4% |
| Cc1cnn(CCC(=O)NNC(=S)Nc2ccc(F)cc2)c1 | 13.8% |
| CC(C)N(CCNC(=O)C1CCC(=O)N1Cc1ccc(F)cc1)Cc1ccccc1 (centres unmarked) | -13% |
| O=C1CC(c2ccc(F)cc2)Cc2nc(N3CCOCC3)ncc21 (centres unmarked) | -1.81% |
| COc1ccc(NC(=O)CCN2CCCC(C)C2)cc1 (centres unmarked) | -23.2% |
| CNC(=O)c1ccccc1Sc1cccc2cccc(C(=O)O)c12 | 12.3% |
| Cc1ccc(/C(C#N)=C\c2ccc(N3CCOCC3)o2)cc1 | -15.4% |
| CCN(CC)CCNC(=O)/C(=C/c1cn(CC)c2ccccc12)NC(=O)c1cc(OC)c(OC)c(OC)c1 | 8.3% |
| CC(=O)Nc1ccc(S(=O)(=O)NNC(=O)c2sc(=S)n(C)c2C)cc1 | 0.763% |
| CCCCNc1nnc(SCC(=O)c2c[nH]c3ccccc23)s1 | -2.72% |
